Values joined by “and” are separate entries in the source; they are usually repeats but may differ in a detail not shown here. Identical values can stand only once. About 2,100 (0.72%) of roughly 290,000 compounds were called active. Inconclusive results, whose numbers are uncertain, are shown with a selection of clear calls. The call rests on the fitted dose curve; in most records, active means well fitted inhibition curve with a large enough effect; inconclusive means small, poorly fitted or top-dose-only effect, or effect the other way; inactive means flat fitted curve, though single readings scatter. Potencies beside an inconclusive call are fits to weak or partial responses and may not hold up.
These compounds were tested against Fructose-bisphosphate aldolase (Giardia intestinalis (strain ATCC 50803 / WB clone C6)) (UniProt A8B2U2) (assay: qHTS Assay for Inhibitors of Fructose-1,6-bisphosphate Aldolase from Giardia Lamblia). Settings: purified Giardia FBPA; series mostly up to 59.6 µM.
UniProt A8B2U2, sequence (A8B2U2 whole entry, looked up): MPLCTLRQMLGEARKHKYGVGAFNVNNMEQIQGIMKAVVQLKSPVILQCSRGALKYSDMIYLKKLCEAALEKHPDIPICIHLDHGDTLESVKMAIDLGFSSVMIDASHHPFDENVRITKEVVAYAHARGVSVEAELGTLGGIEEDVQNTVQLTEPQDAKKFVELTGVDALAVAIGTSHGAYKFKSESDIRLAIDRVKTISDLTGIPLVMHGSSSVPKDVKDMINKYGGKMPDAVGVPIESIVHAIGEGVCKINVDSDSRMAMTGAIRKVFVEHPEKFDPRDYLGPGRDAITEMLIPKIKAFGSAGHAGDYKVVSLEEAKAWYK
How it was run: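 40 nM FBPA preincubated 10 min at RT with compound (up to 57.5 uM final), then substrate plus GAPDH/TPI/NAD/arsenate coupling and diaphorase/resazurin added. Fluorescence read after 20 min at RT, 525/598 nm.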
In the case of `COc1cc2ccnc(Cc3cccc(OC)c3OC)c2cc1OC`, the Potency is reported as “inactive”. With `COc1ccc(C(=O)Nc2nc3ccccc3[nH]2)cc1S(=O)(=O)N1CCOCC1` the Potency was inconclusive: 17.7 µM [inhibitor, partial curve]. For `COCCCN1C(=O)C2C(C(=O)Nc3cc(C)cc(C)c3)C3C=CC2(O3)C1C(=O)NC1CCCCC1` (centres undefined), the Potency was inconclusive: 39.8 µM [inhibitor, single point]. With `CCOC(=O)c1c(-c2ccc(OC)cc2)csc1NC(=O)CCN1CCOCC1` the Potency was inconclusive: 17.7 µM [inhibitor, partial curve]. `CC(=O)Nc1ccc(S(=O)(=O)NC2=C(N3CCN(C)CC3)C(=O)c3ccccc3C2=O)cc1` was tested, and the Potency was active: 0.708 µM. In the case of `C=CCNC(=O)/C(=C/c1ccco1)NC(=O)c1ccc(Br)o1`, the Potency is reported as inconclusive: 31.6 µM [inhibitor, single point]. `Cc1nnc(NC(=O)/C=C/c2ccco2)s1` was tested, and the Potency was inconclusive: 44.6 µM [inhibitor, single point]. For `Cn1cccc1/C=N/NC(=O)c1cccc(OC(F)(F)C(F)F)c1`, the Potency was “inactive”. In the case of `COCCCn1c(O)c(/C=C2\N=C(C#N)C(=Nc3ccc(C)cc3)O2)sc1=S`, the Potency is reported as inconclusive: 15.8 µM [inhibitor, partial curve]. For `O=C(NCc1ccc(-c2nc3ccccc3s2)cc1)c1cc2ccccc2o1`, the Potency was “inactive”. `O=C(COC(=O)c1cccc(S(=O)(=O)N2CCOCC2)c1)c1ccccc1` was tested, and the Potency was “inactive”. With `COC(=O)c1ccc(/C=C2\CCn3c2nc2cc(C(=O)O)ccc2c3=O)cc1` the Potency was inconclusive: 39.8 µM [inhibitor, single point]. For `Fc1ccc(NC(=S)Nc2cccc3cnccc23)cc1`, the Potency was active: 2.81 µM. With `OC(COC(c1ccc(F)cc1)c1ccc(F)cc1)CN1CCCC1` (centres undefined) the Potency was inconclusive: 25.1 µM [inhibitor, single point]. With `O=[N+]([O-])c1ccccc1Oc1ccc(Cl)c2cccnc12` the Potency was inconclusive: 11.2 µM [inhibitor, partial curve]. With `N#Cc1c(/N=C/C2C(=O)NC(=S)NC2=O)sc2c1CCCC2` the Potency was inconclusive: 22.3 µM [inhibitor, single point]. `COc1ccc(OC)c(NC(=O)C(CCS(C)(=O)=O)NC(C)=O)c1` (centres undefined) was tested, and the Potency was inconclusive: 15.8 µM [inhibitor, single point]. With `Cc1cc(C(=O)N/N=C/c2sccc2C)no1` the Potency was “inactive”. With `COc1cccc(NC(=O)CNCc2ccccc2)c1` the Potency was inconclusive: 14.1 µM [inhibitor, partial curve]. For `CCn1c(SCC(=O)Nc2nnc(C)s2)nnc1C(C)NC(=O)c1ccccc1F` (centres undefined), the Potency was inconclusive: 31.6 µM [inhibitor, partial curve]. In the case of `CC(C)CN1C(=O)c2ccc(C(=O)Nc3ccccn3)cc2C1=O`, the Potency is reported as “inactive”. `Cc1ccc(/C([O-])=C(/C(=S)NCc2ccco2)[n+]2ccccc2)cc1[N+](=O)[O-]` was tested, and the Potency was inconclusive: 15.8 µM [inhibitor, partial curve]. `O=C1OC(Nc2ccc3ncccc3c2)c2ccccc21` (centres undefined) was tested, and the Potency was inconclusive: 7.08 µM [inhibitor, partial curve]. `N#CC(CC(=O)c1ccc(F)cc1)c1ccc2c(c1)OCO2` (centres undefined) was tested, and the Potency was “inactive”. With `CCOc1ccccc1N1CCN(C(=S)NCc2ccco2)CC1` the Potency was inconclusive: 44.6 µM [inhibitor, single point]. With `CC(C)(C)N(CC#CCC(O)(c1ccccc1)c1ccccc1)CCO` the Potency was active: 19.9 µM. In the case of `CCCOc1ccc(-c2nnc(-c3ccncc3)o2)cc1`, the Potency is reported as “inactive”. `CCc1ccc(CN2CCN(c3ncccn3)CC2)cc1` was tested, and the Potency was inconclusive: 20 µM [inhibitor, partial curve]. With `COc1ccc(CN2CCN(c3ccccc3F)CC2)c(OC)c1` the Potency was inconclusive: 14.1 µM [inhibitor, partial curve]. For `CC1(C)CCN2CCC(C)(C)c3c(O)ccc1c32`, the Potency was inconclusive: 14.1 µM [inhibitor, partial curve]. `CSc1ncccc1C(=O)OCc1ccccc1Cl` was tested, and the Potency was “inactive”. `CCOC(=O)Nc1ccc2c(c1)N(C(=O)CN(CC)CC)c1ccccc1CC2` was tested, and the Potency was inconclusive: 28.2 µM [inhibitor, partial curve]. In the case of `O=C(Nc1ccccc1)c1ccc(-c2ccccc2)s1`, the Potency is reported as “inactive”. In the case of `Cc1ccccc1NCC(=O)N/N=C\c1ccc([N+](=O)[O-])s1`, the Potency is reported as inconclusive: 22.3 µM [inhibitor, single point]. In the case of `COc1ccc2[nH]c(=O)c(CN(Cc3ccc(C)cc3)Cc3nnnn3CC3CCCO3)cc2c1` (centres undefined), the Potency is reported as inconclusive: 17.7 µM [inhibitor, single point]. With `CC(=O)c1ccc(OCCCN2CCCCC2)cc1` the Potency was inconclusive: 19.9 µM [inhibitor, partial curve]. For `Nc1c(S(=O)(=O)O)cc(Nc2cccc3ccccc23)c2c1C(=O)c1ccccc1C2=O`, the Potency was inconclusive: 17.7 µM [inhibitor, single point]. `CCCCC1=CC2=C(c3ccco3)C(=O)C(C)(OC(=O)c3ccc(OC)cc3)C(=O)C2=CN1CCCCO` (centres undefined) was tested, and the Potency was inconclusive: 5 µM [inhibitor, partial curve]. With `COc1cc(C(=O)N/N=C(\Cc2ncc[nH]2)c2ccccc2)cc(OC)c1OC` the Potency was inconclusive: 28.1 µM [inhibitor, single point]. With `CCOc1cccc(=O)c2c(C)n(Cc3ccco3)c(C)c12` the Potency was inconclusive: 15.8 µM [inhibitor, single point]. With `O=C(Nc1ncn[nH]1)C(F)(F)C(F)F` the Potency was inconclusive: 15.8 µM [inhibitor, partial curve]. In the case of `O=[N+]([O-])c1cc(Br)c(O)c(/C=N/Nc2nc3ccccc3s2)c1`, the Potency is reported as inconclusive: 12.6 µM [activator, partial curve]. `COc1ccccc1OCCCOc1cccc(/C=C2\SC(=O)NC2=O)c1` was tested, and the Potency was inconclusive: 14.1 µM [inhibitor, partial curve]. With `c1ccc(-c2ccccc2OCCCCN2CCCCCC2)cc1` the Potency was inconclusive: 19.9 µM [inhibitor, partial curve]. With `O=C(N/N=C/c1cc(Br)c(Br)o1)c1cccnc1` the Potency was inconclusive: 4.46 µM [inhibitor, partial curve]. `O=C(CSc1ccc(-c2ccccn2)nn1)NC1CCCCC1` was tested, and the Potency was inconclusive: 22.3 µM [inhibitor, single point]. With `Cc1cc(-n2[nH]c(C)c(C)c2=O)nc(-c2ccccc2O)n1` the Potency was inconclusive: 12.6 µM [inhibitor, partial curve]. `CC1CCN(S(=O)(=O)c2ccc3c(c2)N(CC(=O)N(C)Cc2ccco2)C(=O)CO3)CC1` was tested, and the Potency was “inactive”. For `Cc1cccc(N2CCc3c2nc2ccc(Br)cc2c3N)c1`, the Potency was inconclusive: 15.8 µM [inhibitor, partial curve]. For `CCN(CC)c1ccc(NC(=O)CCc2nnc3ccc(N4CCCC4)nn23)c(C)c1`, the Potency was “inactive”. For `OC(CNCc1ccc(Cl)cc1)COc1ccccc1` (centres undefined), the Potency was inconclusive: 14.1 µM [inhibitor, partial curve]. For `O=[N+]([O-])c1cccc(CSC2=NCCN2S(=O)(=O)c2ccccc2)c1`, the Potency was inconclusive: 28.2 µM [inhibitor, partial curve]. With `Cc1cc(C=C2C(=O)N(C)C(=S)N(C)C2=O)c(C)n1-c1cccnc1` the Potency was active: 3.15 µM. In the case of `CC1CCCN(S(=O)(=O)c2ccc(C(=O)Nc3nnc(-c4ccncc4)o3)cc2)C1` (centres undefined), the Potency is reported as active: 7.06 µM. `CCOC(=O)c1nn(-c2ccccc2C)c(=O)c(C#N)c1C` was tested, and the Potency was inconclusive: 17.7 µM [inhibitor, partial curve]. For `O=C(CCC1CCCCC1)NNC(=O)c1cnccn1`, the Potency was inconclusive: 35.4 µM [activator, single point]. For `COc1ccc2c(c[n+](C)c3c4cc5c(cc4ccc23)OCO5)c1OC`, the Potency was inconclusive: 17.7 µM [inhibitor, partial curve] and inconclusive: 5 µM [inhibitor, full curve]. In the case of `COc1cc([N+](=O)[O-])cc(/C=N/NC(=O)C(O)(c2ccccc2)c2ccccc2)c1O`, the Potency is reported as inconclusive: 39.8 µM [activator, single point]. For `CC1(C)Cc2c(c(-c3ccco3)[nH]c(=O)c2C#N)CS1`, the Potency was active: 17.7 µM. `CN(C(=O)CCS(=O)(=O)c1cc2c(cc1Cl)NC(=O)CO2)C1CCCCC1` was tested, and the Potency was “inactive”. For `Cc1ccc(S(=O)(=O)N2CCOCC2)cc1C(=O)NC(=S)N1CC(C)CC(C)C1` (centres undefined), the Potency was inconclusive: 15.8 µM [inhibitor, single point]. In the case of `Cc1ccc(CN2CCN(Cc3ccco3)CC2)cc1`, the Potency is reported as active: 15.8 µM. In the case of `O=C(NNC(=S)NC(=O)c1ccccc1[N+](=O)[O-])c1ccccc1[N+](=O)[O-]`, the Potency is reported as inconclusive: 31.5 µM [activator, single point]. With `COc1ccc(/C=N/n2c(COc3ccccc3)n[nH]c2=S)cc1OC` the Potency was “inactive”. For `CCCCCNC(=O)c1ccc2c(=O)n(CCCN3CCCC3=O)c(=S)[nH]c2c1`, the Potency was inconclusive: 31.5 µM [inhibitor, single point]. `COc1ccc(S(=O)(=O)N2CCOCC2)cc1NC(=O)c1cccc2c(=O)c(C)c(-c3ccccc3)oc12` was tested, and the Potency was “inactive”. For `CCN(CC)CCCN1C=C2C(=O)C(C)(OC(=O)CCc3ccccc3)C(=O)C=C2C=C1c1ccc(C#N)cc1` (centres undefined), the Potency was inconclusive: 0.998 µM [inhibitor, full curve]. In the case of `COc1cccc(CNCc2cccc(Br)c2)c1OC`, the Potency is reported as inconclusive: 17.7 µM [inhibitor, partial curve]. In the case of `CNc1ccc2oc(C[C@H]3O[C@@]4(CC[C@H]3C)O[C@H]([C@H](C)C(=O)c3ccc[nH]3)[C@H](C)C[C@H]4C)nc2c1C(=O)O`, the Potency is reported as inconclusive: 17.7 µM [inhibitor, single point].

— PubChem BioAssay AID2451 (National Center for Advancing Translational Sciences (NCATS), 2010)
Further: nearly all actives have a fitted effect of over 55% in size.
Potency means the concentration at half of the fitted maximal effect; tags describe the fitted curve by direction and shape.
